Measurements from PubChem BioAssay AID588855 (National Center for Advancing Translational Sciences (NCATS), 2011).
Among all 410,000 compounds or so, about 5,000 (1.2%) were called active. The shares of active, inactive and inconclusive entries below differ from those in the screen. The call rests on the fitted dose curve; in most records, active means well fitted inhibition curve with a large enough effect; inconclusive means small, poorly fitted or top-dose-only effect; inactive means no such curve, though single readings can be large or run the other way. Potencies of inconclusive entries are doubtful fits and often do not repeat.

Experiment: qHTS for Inhibitors of TGF-b; further: nearly all actives have a fitted effect of over 65% in size
Details: HepG2 CAGA-GFP TGF-b/SMAD3 reporter, GFP fluorescence, 18 h, TGF-beta stimulated, 500 pg/mL final; series mostly up to 46.1 µM
Outline: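 Read-out: total well GFP (ex488/em500-530) summed from mean per-cell fluorescence. Cells: HEPG2 CAGA-GFP, 1% FBS DMEM, 18 h at 37 degrees C with 500 pg/mL final TGF-beta. Unstimulated wells served as the full-inhibition control; stimulated DMSO wells = 0%.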
Potency means the concentration at half of the fitted maximal effect; tags describe the fitted curve by direction and shape.

| SMILES | Potency |
| --- | --- |
| O=C(CSc1nc(-c2ccccc2)c(-c2ccccc2)[nH]1)Nc1nccs1 | inconclusive: 10 µM [inhibitor, partial curve] |
| Cc1ccc(SCCC(=O)Nc2ccc(Br)c(C)c2)cc1 | inconclusive: 35.5 µM [inhibitor, single point] |
| COC(=O)CSc1nc2c(c(-c3ccc(O)cc3)c1C#N)CCCC2 | inconclusive: 28.2 µM [inhibitor, single point] |
| COc1ccc(OC)c(C(=O)COC(=O)c2cccnc2SC)c1 | inactive |
| Cc1ccc(Cl)cc1N1CCN(S(=O)(=O)c2ccc(-c3cnc(C4CC4)o3)cc2)CC1 | inconclusive: 3.55 µM [inhibitor, partial curve, poor fit] |
| O=C(c1cc(F)c(F)c(F)c1F)N1CCN(C(=O)C2CCCO2)CC1 (stereo unspecified) | inconclusive: 0.891 µM [inhibitor, full curve, poor fit] |
| O=C(NC1CC2CCCC(C1)N2CC(=O)N1CCCc2ccccc21)C1CCCCC1 (stereo unspecified) | inactive |
| COC(=O)CNC(=O)CSc1nnc(C)c(=O)[nH]1 | inconclusive: 2.82 µM [inhibitor, single point] |
| C[C@](N)(Cc1ccc(O)c(O)c1)C(=O)O | inconclusive: 3.98 µM [inhibitor, partial curve, poor fit] |
| O=C(NCC(c1ccco1)N1CCCCC1)c1ccc([N+](=O)[O-])s1 (stereo unspecified) | active: 15.8 µM |
| Cc1noc(C)c1S(=O)(=O)N(CC(=O)Nc1ccc2c(c1)OCCO2)c1ccc(C(C)C)cc1 | inconclusive: 35.5 µM [inhibitor, single point] |
| C(=N\Nc1nc(N2CCOCC2)nc(N2CCOCC2)n1)/c1cccnc1 | inactive |
| CN1CCN(c2ncnc3sc(-c4ccccc4)cc23)CC1 | inconclusive: 35.5 µM [inhibitor, single point] |
| Cc1cc(F)ccc1NC(=O)c1ccc(NS(=O)(=O)c2cc(C(C)(C)C)ccc2C)cc1 | inconclusive: 12.6 µM [inhibitor, partial curve, poor fit] |
| COc1ccc(NC(=O)NNC(=O)C(C)Oc2ccc3ccccc3c2)cc1 (stereo unspecified) | inactive |
| CCc1ccc(O)c(N=Cc2cccc(C)c2O)c1 | inconclusive: 0.282 µM [inhibitor, full curve, poor fit] |
| CC1c2ccccc2-c2ccccc2N1C (stereo unspecified) | inconclusive: 0.708 µM [inhibitor, full curve, poor fit] |
| Cn1c(=O)c2c(n3c4ccccc4nc13)NC(=O)CC2c1cccc(Cl)c1 (stereo unspecified) | inconclusive: 14.1 µM [inhibitor, single point] |
| Cc1onc(-c2ccccc2)c1C(=O)N(C)CC(=O)Nc1ccc(F)c(F)c1F | inconclusive: 12.6 µM [inhibitor, partial curve] |
| Cc1cc2cc3c(=O)[nH]c(=O)cc-3n(CC(O)C(O)C(O)CO)c2cc1C (stereo unspecified) | inactive |
| Cc1csc(CNc2ncnc3ccc(-c4ccc5c(c4)OCCO5)cc23)c1 | inconclusive: 35.5 µM [inhibitor, single point] |

| SMILES | Potency |
| --- | --- |
| COc1ccc(/C=c2/sc3nc(-c4ccccc4)c(-c4ccccc4)n3c2=O)cc1 | inconclusive: 35.5 µM [inhibitor, single point] |
| Cc1ccc(S(=O)(=O)N2C[C@H]3C(=O)C[C@@H](c4ccccc4)N(S(=O)(=O)c4ccc(C)cc4)[C@H]3C[C@H]2c2ccccc2Cl)cc1 | inactive |
| CC(/C=C/c1ccccc1)=N\NC(=S)NC(C)C | inconclusive: 7.08 µM [inhibitor, partial curve, poor fit] |
| O=C(NCc1ccc2c(c1)OCO2)C1CCC(CNS(=O)(=O)c2cccc3nsnc23)CC1 (stereo unspecified) | inconclusive: 6.31 µM [inhibitor, single point] |
| Cc1cccc(-n2c(SCC(=O)Nc3cccc(S(=O)(=O)NC4=NCCCCC4)c3)nc3ccccc3c2=O)c1C | inconclusive: 6.31 µM [inhibitor, partial curve, poor fit] |
| Cc1ccc(C)c(S(=O)(=O)n2nc(C)c(S(=O)(=O)N3CCC(C)CC3)c2C)c1 | inactive |
| CCOC(=O)C(=O)CC(=O)c1ccc2c(c1)OCCO2 | inconclusive: 35.5 µM [inhibitor, single point] |
| Cc1ccccc1NC(=O)c1ccccc1NC(=O)Cc1cccc2ccccc12 | inactive |
| COc1ccc(CC(N)c2csc(NC(=O)Nc3cc(OC)ccc3OC)n2)cc1 (stereo unspecified) | inconclusive: 22.4 µM [inhibitor, single point] |
| COc1c(Cl)cc(C(=O)Nc2ccccc2C(=O)O)cc1Cl | inactive |
| CCCCCCn1c(=O)n2n(c1=O)C[C@]1(OC(=O)NCc3ccccc3F)CN(S(=O)(=O)c3ccc(C)cc3)C[C@]1(O)C2 | inconclusive: 17.8 µM [inhibitor, single point] |
| C=CCNc1nc(NCCOc2ccccc2Cl)c2sc(-c3ccccc3)cc2n1 | inconclusive: 25.1 µM [inhibitor, single point] |
| COc1cc(C)ccc1OCCOCCOc1cc(C)c(C)cc1Br | inconclusive: 25.1 µM [inhibitor, single point] |
| COC(=O)C1=C(C(=O)OC)[C@@H]2Nc3ccccc3[C@@]23C[C@@H](C(=O)OC)N(C(=O)COCc2ccccc2)C3=N1 | inconclusive: 3.16 µM [inhibitor, single point] |
| CCOc1ccc(C2c3c(oc4cc(C)c(C)cc4c3=O)C(=O)N2c2ccccn2)cc1 (stereo unspecified) | inactive |
| CC1CCOC(c2coc3ccccc3c2=O)O1 (stereo unspecified) | inconclusive: 0.708 µM [inhibitor, partial curve, poor fit] |
| CCc1ccc(C2NC(=S)NC3=C2C(=O)N(c2ccccc2OC)C(c2ccc(CC)cc2)N3)cc1 (stereo unspecified) | inconclusive: 35.5 µM [inhibitor, single point] |
| Cc1nn(C)c(C)c1NC(=O)CC12CC3CC(CC(C3)C1)C2 | inactive |
| COc1cccc(NC(=O)C2CCCN2S(=O)(=O)c2ccc3nc(-c4ccccc4)[nH]c3c2)c1 (stereo unspecified) | inconclusive: 10 µM [inhibitor, partial curve, poor fit] |
| Cc1ccccc1N(CC(=O)N/N=C/c1cc(C)n(-c2ccccc2C)c1C)S(C)(=O)=O | inconclusive: 35.5 µM [inhibitor, single point] |
